# According to the RNAGym collection of RNA variant scans (doi:10.7554/elife.90254):
# Read counts are not given, so values of variants with three or more changes are uncertain.
# B1: OR4K15 (parent)
# chain: GUUAACGGUCAUAGGCCAUGGAAACUAGGAGCACCAUUUCGCUGCCAGUGAAGAAAUGAACAAAGAAAAUCUGGGCCAGGCAGGCAUCAAAAGAAAUAGUCUUGCGCUCAACCAGAAAGUCUGUAAUCAUUUUAAGGGUA
# Variants of: B1
# Test: self-cleavage, relative activity (ratio to wild type); higher = more cleavage; in vitro, sequencing; the parent is a self-cleaving ribozyme
row,Variant,self-cleavage
1,G7A A47U A91G U122C,0.69
2,U9C A96G U130C,1.34
3,A5U U39C U133C,1.86
4,C6U A18G A33G,1.01
5,U9C A60G A78G,0.22
6,U9C A66U G80A U108C,0.01
7,U9A A11G A95G A134G,0.89
8,U9A A18G A22G,1.42
9,U9C A55G U132C,1.16
10,G7U A18G A51U A96G U124G,0.61
11,C6A A24G A56C A82G U100A,0.05
12,G7A C40A U57C U131C A134G,0.72
13,U9C A11G A33U U122C,0.85
14,G7A U39C A66U A78C U108C,0.02
15,G7A C34A C61U,1.9
16,U9C A30G A51G,1.2
17,U9C A52G A64G U102C U103C A129G,0.54
18,U9C A52G A66G A68G,1.02
19,G7U A23G A54G U72C G115A,0.04
20,U9C A66G A89G U131C,1.13
21,U9C A62G A116G,0.69
22,U9C A60G A64G U100C,1.55
23,G7U A51G A59G,1.01
24,U9C C17U A90G,0.84

row,Variant,self-cleavage
1,U9C A98G U122C,0.23
2,U9C A11U A27G A95G,1.82
3,G8A A24G U108C,0.03
4,U9A U37C U108C A135G,0.01
5,U9C A11U U122C,0.96
6,C6U A67G A110U,0.55
7,G7A A62G A67U G84U,0.56
8,G7U A69G U102C,2.39
9,U9C A47G A117G A129G,1.78
10,U9C A18U A24C A56U C76A A89G A94G,0.13
11,U9C A54U G80C,0.26
12,U9C A23U A96G U127C,0.48
13,U9C A117G U120C,0.83
14,U9A U43C A55G A63G A92G U108A A111C,0.01
15,G7A U39G U49A U57C,0.8
16,U9A U49C C107U,0
17,G8A A82G A114G A125G A129G,0.01
18,U9C A92G U103C U132C A140G,0.67
19,U9C A55G A82G U103C A111C,0
20,G8A U19C U70C G115U U130C,0.03
21,G7A U38C U87C,0.19
22,U9C A82U U108G,0.06
23,G7A U38C A51G,2.32
24,G8U A13G A52G A129G,1.2

row,Variant,self-cleavage
1,G7U U9C U37C A56G U127C,0.53
2,U9C A11G A23G U37C A116C,0.19
3,U9A U19C A33G U139A,0.95
4,U9A A22C A52G A59G U122C,0.03
5,U9C A24G A91U C109U,0.22
6,U9C A23G G58A A68G U132C,1.27
7,C6A A13U A59G U127C,1.21
8,C6U U38C A47U A51G A55G U132C,0.8
9,U9A A47C U127G,1.52
10,U9C A23G U26C G138A,0.81
11,U9C A95G A118G,1.3
12,G8A A62U A98G,1.26
13,U9A C17U U100C,1.48
14,U9C A52G U108A U122A,0.03
15,U9C A30G U49A A91G,1.08
16,U9C A54G U87C U124C,0.82
17,U9C A96G A126G,1.69
18,C6U A36U A59G A68G,1.09
19,U9C A56U U57C,1.37
20,U9C A30U A118G,1.56
21,U9A A30G A91G,1.5
22,G7A A91G U100C A126G U139C,2.43
23,U9C A51G A52G U108C U130C,0.25
24,U9C A11G U39C A111G A116G,0.04

row,Variant,self-cleavage
1,U9A G73A U131C,0.14
2,U9C A11U A13G A59G A86G U127C,1.14
3,U9A A56G U103C,0.59
4,U9C A52G A54U A55G,1.16
5,U9A A18G U37C U108G,0.01
6,G8A G15A A68G A91G A116G,0.23
7,U9C A22G A67G U108C,0.07
8,U9C A24G U37C U43A,1.25
9,U9C A18U A23G A66G G106A,0
10,U9A A55G A67G G74A A92G G123U A126G A140G,0.1
11,G7A U9A A82G C85U C109U,0.2
12,G7A A60G A92G,1.84
13,G7C U12G A62U,1.63
14,U9C A47G A116G U131C,0.34
15,U9C A30G A91G,1.32
16,U9C A11U A66G A68G A91U A92U,1.06
17,U9C A22G A111G A114U U132C,0.04
18,U9A U49G A52G,0.97
19,U9C A18G A66U A90U A96G,0.9
20,U9C A52G U87C A89G,1.17
21,U9C A27G U57C A68G U130C,0.66
22,U9C A110G U139C,0.11
23,G8A U43C A114C,0.02
24,C6U A24C A60G A94G,1.6

row,Variant,self-cleavage
1,G7A A22G A24G,1.02
2,C6A G15A U102C,1.66
3,G7A A22C U87C A117G A129G,0.95
4,U9A U122C U132A,0.84
5,G7A U49C A118G A140G,1.92
6,U9A A23G A51G A78G U122C,0.16
7,C6U A59G A117G,1.41
8,U9C A13G A78U,0.39
9,U9A A36G C101A,0.24
10,U9C A24G A63G,1.44
11,G7A U38C A96G,1.72
12,U9C A51G A59U,1.15
13,G8U A23G U39C,1.39
14,G8A U9C A59G U103C,0.9
15,G7U U37C A67G A96G U97C A126G,0.59
16,U9A A66G A98G,1.27
17,U9C A86G A110G,0.18
18,U9C A55G A56G,0.74
19,U9C A69U A135G,1.63
20,U9C A52G A111G,0.03
21,U9A U43C A47C U103A A111G,0.02
22,U9C A51G A69G U100C,2.75
23,U9A A55G A78G U108C A114G,0.02
24,U9C A59G A86G A117G,1.95

row,Variant,self-cleavage
1,U9C A78U G79U G136A,0.15
2,G7U U37C A56G,1.49
3,U9A A23G C107U,0.1
4,U9C A23G A55G U108C A114G,0.02
5,U9A A22G A60U,0.89
6,U9C A18C A82G A114G,0.09
7,C6U U26C U38C,1.37
8,U9C A59U A67G A125G,0.72
9,U9C A18U U72C,0.31
10,U9C A11G U49A A69G U102C,1.22
11,C6U A33U A95G U132C,1.09
12,U9C A22G A60G A111U,0.17
13,U9C A91G U102C C128U,1.09
14,U9A A23G U39C,1
15,U9C A95G A114U,0.38
16,U9C A64G A92U,1.63
17,U9C A64G A92G,1.25
18,G8A A86G A110C A129G,0.16
19,G8A A60G C71A,0.78
20,G7A U43C U49C A95G A116U,0.65
21,C6U A60G A67G C77U,1.32
22,U9A U38C G48A A52G A118G A140G,1.44
23,G7A A13U A24C A30G U39C A125G U130G,0.3
24,A5U U39C A89G A117G,0.93

row,Variant,self-cleavage
1,G8A C17U A68G A89G A110G,0.26
2,U9A A11C U131A,1.49
3,U9C A47G U122C,0.6
4,U9A A18G U49C A55G G74U A135U,0.18
5,U9C A22G A63G A92G,1.64
6,A5U U39A G73A,0.16
7,U9A A33G U100A A116G,0.08
8,U9C A47G A89G,1.07
9,U9C A63U A82U,0.19
10,G7U A64G A82G,0.67
11,C6A U37C A51G,1.08
12,G7A A59G A89G,1.17
13,C6A A30U A62G A64G U120C,1.42
14,U9C A23G A66G A95G,1.79
15,G7U A68G A89G A96G U120C U133C,1.18
16,U9C A51G U103C A114U U139C A140G,0.06
17,U9C A52G A63G U72C,0.44
18,U9C A62G A92G,2.39
19,C6A U19C U43C A118G,0.42
20,U9A U124C A140G,0.72
21,G7U A30G U49C A66G A92G U127C,0.99
22,U9A A91G A95G A111C U124C,0.03
23,U9A A66G A82G A114U A140C,0.06
